Experimental data taken from PubChem BioAssay AID588342 (National Center for Advancing Translational Sciences (NCATS), 2011).
About 25,000 (6.9%) of roughly 360,000 compounds were called active. The shares of active, inactive and inconclusive entries below differ from those in the screen. The call rests on the fitted dose curve; in most records, active means well fitted inhibition curve with a large enough effect; inconclusive means small, poorly fitted or top-dose-only effect; inactive means flat fitted curve, though single readings scatter. A potency beside an inconclusive call is a rough fit, not a confirmed value.

molecular target: Luciferin 4-monooxygenase (Photinus pyralis) (UniProt P08659); experiment: qHTS profiling assay for firefly luciferase inhibitor/activator using purifed enzyme and Km concentrations of substrates (counterscreen for miR-21 project); details: purified FLuc, luminescence inhibition; series mostly up to 57.5 µM; further: nearly all actives have a fitted effect of over 55% in size
Summary of the method: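 Purified P. pyralis luciferase (10nM final) with 10uM D-luciferin and 10uM ATP (Km levels) in 50mM Tris acetate pH 7.5, 10mM Mg acetate, 0.01% Tween-20, 0.05% BSA; qHTS 6-point titration, ~60 µM downward; luminescence read.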
Potency means the concentration at half of the fitted maximal effect; tags describe the fitted curve by direction and shape.

Chain of UniProt P08659 (P08659 whole entry, looked up): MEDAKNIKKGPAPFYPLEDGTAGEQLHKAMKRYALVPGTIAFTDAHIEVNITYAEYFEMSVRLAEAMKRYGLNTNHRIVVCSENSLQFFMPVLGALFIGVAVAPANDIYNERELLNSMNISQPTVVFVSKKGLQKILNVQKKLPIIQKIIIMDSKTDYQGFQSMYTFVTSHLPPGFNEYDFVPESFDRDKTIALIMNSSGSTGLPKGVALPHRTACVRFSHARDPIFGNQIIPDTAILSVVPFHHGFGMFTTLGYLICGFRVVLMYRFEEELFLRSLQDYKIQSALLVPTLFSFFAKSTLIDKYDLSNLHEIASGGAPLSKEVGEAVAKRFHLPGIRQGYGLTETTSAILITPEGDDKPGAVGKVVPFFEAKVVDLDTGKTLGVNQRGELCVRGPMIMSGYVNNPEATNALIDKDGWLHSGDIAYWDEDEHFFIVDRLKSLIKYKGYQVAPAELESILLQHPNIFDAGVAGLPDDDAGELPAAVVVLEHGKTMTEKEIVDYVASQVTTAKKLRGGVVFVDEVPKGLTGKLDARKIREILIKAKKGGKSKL

Row | Compound | Potency
1 | COc1ccc(C=C(c2nc3ccccc3s2)c2nc3ccccc3s2)cc1O | active: 10.7 µM
2 | CC(C)Cn1nc(NS(=O)(=O)c2cccc3nonc23)c2cc3ccccc3nc21 | inconclusive: 23.9 µM [inhibitor, partial curve, poor fit]
3 | CCn1c(Cc2cccn2C)nnc1SCC(=O)c1ccc(C)cc1 | inconclusive: 26.9 µM [inhibitor, single point]
4 | O=C(CSc1ncn[nH]1)c1ccc2c(c1)OCO2 | inconclusive: 33.8 µM [inhibitor, partial curve, poor fit]
5 | Clc1cccc(-c2csc(-c3nc(-c4ccc(Br)s4)cs3)n2)c1 | inactive
6 | O=C(Nc1ccc(O)c(-c2nc3ccccc3s2)c1)C1=COCCO1 | inactive
7 | COc1ccc(NC(=O)c2ccc(OC(F)F)cc2)cc1Cl | active: 2.69 µM
8 | CC(C)c1ccc(NC(=O)C(c2ccccc2)N2CC(=O)Nc3ccccc32)cc1 (stereo not given) | inconclusive: 15.1 µM [inhibitor, partial curve, poor fit]
9 | CCOc1ccc(NC(=O)c2cc(S(=O)(=O)NC3CCCC3)ccc2F)cc1 | inactive
10 | CCC(=O)Nc1nc(OC)cc(OC)n1 | inactive
11 | C=CCn1c(=S)[nH]c2scc(-c3ccc(C)o3)c2c1=O | inconclusive: 26.9 µM [inhibitor, partial curve]
12 | COc1ccccc1NS(=O)(=O)c1ccc(O)c(C(=O)OCC(=O)c2ccc(Cl)cc2Cl)c1 | inconclusive: 30.1 µM [inhibitor, single point]
13 | O=C(COC(=O)c1ccccc1O)Nc1ccc(OC(F)F)cc1 | inconclusive: 8.49 µM [inhibitor, partial curve]
14 | O=C(CNC(=S)N(Cc1ccccc1F)C1CCCCC1)NCC1CCCO1 (stereo not given) | inactive
15 | CC(=O)Nc1ccc(NC(=O)CSc2ccc(-c3ccc(-n4ccnc4)cc3)nn2)cc1 | inconclusive: 1.69 µM [inhibitor, full curve]
16 | CCOC(=O)c1scc(-c2ccc(C)cc2)c1S(=O)(=O)Nc1cc(Cl)ccc1OC | inactive
17 | CCOC(=O)CCSc1nc(C)c2cc(C)c(C)cc2n1 | inconclusive: 23.9 µM [inhibitor, single point]
18 | O=C(c1ccc(CSc2ccccc2)cc1)N1CCCCCC1 | active: 23.9 µM
19 | Cc1cccc(/C(N)=N/OC(=O)CCCc2ccccc2)c1 | active: 9.53 µM
20 | O=C(Cc1ccccc1)Nc1ccc(CN2CCOCC2)cc1 | inconclusive: 21.3 µM [inhibitor, partial curve]
21 | O=c1[nH]c(Nc2nc3ccccc3o2)nc2c1CCCC2 | active: 1.51 µM
22 | CCCn1c(=O)sc2cc(NC(=O)c3ccccc3OCC)ccc21 | inactive
23 | Cc1cccc(-c2nc(SCC(=O)Nc3cccc(C(F)(F)F)c3)n3[nH]c(=O)cc3n2)c1 | inconclusive: 26.9 µM [inhibitor, partial curve]
24 | O=C(COc1ccc(Br)cc1Cl)NC(=O)Nc1ccc2c(c1)OCCO2 | inconclusive: 16.9 µM [inhibitor, partial curve]

Row | Compound | Potency
25 | CCCCn1c(N)c(N(CCC(C)C)C(=O)CSc2nnc(Nc3ccccc3)s2)c(=O)[nH]c1=O | active: 23.9 µM
26 | C=CC(=O)Nc1sc2c(c1C(N)=O)CCCC2 | inconclusive: 16.9 µM [inhibitor, partial curve]
27 | CCc1nc2ccccc2n1CCCCOc1ccccc1C | inconclusive: 42.6 µM [inhibitor, partial curve, poor fit]
28 | O=C(CSc1nccn1Cc1ccco1)Nc1ccccc1F | inconclusive: 37.9 µM [inhibitor, partial curve, poor fit]
29 | Cc1c(CC(=O)O)c(=O)oc2cc(OCc3ccc(Cl)cc3)ccc12 | active: 8.49 µM
30 | O=c1cc(NC2CCCCC2)c2ccccc2o1 | inconclusive: 23.9 µM [inhibitor, partial curve, poor fit]
31 | FC(F)(F)c1ccc(-c2nc(=S)[nH][nH]2)cc1 | inconclusive: 37.9 µM [inhibitor, partial curve, poor fit]
32 | Cc1ccc(C(=O)Nc2nnc(-c3ccco3)o2)cc1C | inconclusive: 37.9 µM [inhibitor, single point]
33 | CC(Sc1ccccc1)C(=O)NCCc1ccccc1 (stereo not given) | inconclusive: 33.8 µM [inhibitor, single point]
34 | CCCn1c(SCC(O)c2cccc(OC)c2)nc2ccccc21 (stereo not given) | inactive
35 | O=C(N/N=C/c1ccco1)c1ccc(C(=O)N/N=C/c2ccco2)o1 | inconclusive: 16.9 µM [inhibitor, partial curve]
36 | COc1ccc(OCC(=O)N/N=C2\CCc3ccccc32)cc1 | active: 19 µM
37 | COc1ccccc1C(=O)NC1(C(F)(F)F)C(=O)Nc2c1c(=O)[nH]c(=O)n2CCc1ccccc1 (stereo not given) | inconclusive: 12 µM [inhibitor, partial curve, poor fit]
38 | Cc1onc(-c2ccccc2)c1C(=O)Nc1nc(-c2ccccc2)cs1 | active: 19 µM
39 | C/C(=N\Nc1ccc([N+](=O)[O-])cc1)c1cccc(N)c1 | active: 19 µM
40 | CCn1c2c(c(=O)n3ncc(C(=O)Nc4cccc(Cl)c4C)c13)CN(Cc1ccc(OC)cc1)CC2 | inconclusive: 13.5 µM [inhibitor, partial curve, poor fit]
41 | O=C(CCn1ccnc1)Nc1nc2ccccc2[nH]1 | inactive
42 | Cc1ccc(C(=O)NCC(=O)OCc2csc(-c3ccccc3)n2)cc1 | inconclusive: 37.9 µM [inhibitor, single point]
43 | COc1ccc(C(=O)/C=C/c2ccc(OC)c(CN3CCOCC3)c2)cc1 | inconclusive: 23.9 µM [inhibitor, single point]
44 | Cc1ccc(-c2csc(-c3c[nH]c4ccccc34)n2)c(C)c1 | inconclusive: 26.9 µM [inhibitor, single point]
45 | Oc1[nH]c2ccccc2c1N=NC(=S)NCC1CCCO1 (stereo not given) | inconclusive: 21.3 µM [inhibitor, partial curve, poor fit]
46 | CCCn1nc(NS(=O)(=O)c2ccccc2)c2cc3cc(C)ccc3nc21 | active: 16.9 µM
47 | O=C(CSc1nnc2n1CCCCC2)Nc1ccc(N2CCOCC2)cc1 | active: 16.9 µM
48 | Cc1cc(C)c2c(N)c(-c3nc4ccccc4[nH]3)sc2n1 | inconclusive: 21.3 µM [inhibitor, single point]

Row | Compound | Potency
49 | COC(=O)c1ccc(OC(=O)c2ccc(OC)cc2)c(OC)c1 | inconclusive: 26.9 µM [inhibitor, partial curve, poor fit]
50 | CCOC(=O)c1ccc(NC(=O)C2CC2)cc1 | inconclusive: 26.9 µM [inhibitor, single point]
51 | CCCCOC(=O)Nc1nc(C)c(C(=O)OCC)s1 | inconclusive: 7.57 µM [inhibitor, partial curve, poor fit]
52 | O=C(Cc1cn2ccsc2n1)OCc1nc2ccccc2s1 | inconclusive: 33.8 µM [inhibitor, partial curve, poor fit]
53 | CC(NC(=O)c1cc(-c2cccnc2)nc2ccc(Br)cc12)C1CCCO1 (stereo not given) | inconclusive: 26.9 µM [inhibitor, partial curve, poor fit]
54 | CCOC(=O)c1ccc(NC(=O)Nc2ncccc2C)cc1 | inconclusive: 0.953 µM [inhibitor, partial curve, poor fit]
55 | COc1ccc(N2CCn3c2nc2c3c(=O)n(CCc3ccccc3)c(=O)n2C)c(OC)c1 | inactive
56 | Cc1ccccc1NC(=O)N1CCCC(c2nc(-c3ccc(C(C)C)cc3)no2)C1 (stereo not given) | inconclusive: 19 µM [inhibitor, partial curve]
57 | CCOc1cc2c(cc1OCC)C(c1ccc(OC)c(OC)c1)N(c1ccc(C(=O)O)cc1)C(=O)C2 (stereo not given) | inactive
58 | CCN(CC)C(=O)c1sc(NC(=O)c2cc(-c3ccc(C)s3)nc3ccccc23)c(C(=O)OC)c1C | inconclusive: 23.9 µM [inhibitor, single point]
59 | COc1cccc(/C=N/NC(=O)CN2CC(c3ccccc3)CC2=O)c1O (stereo not given) | active: 12 µM
60 | O=C(Cn1nc(C(F)(F)F)c2c1CCC2)Nc1ccc(Cl)cc1 | inactive
61 | Cc1cccc(NC(=O)c2cccc(OC(=S)N3CCOCC3)c2)c1 | inconclusive: 37.9 µM [inhibitor, partial curve, poor fit]
62 | O=C(/C=C/c1ccccc1[N+](=O)[O-])N1CCc2ccccc2C1 | inconclusive: 26.9 µM [inhibitor, single point]
63 | CN(C(=O)CSc1nnc(-c2n[nH]c3ccccc23)o1)c1ccccc1 | inconclusive: 21.3 µM [inhibitor, partial curve, poor fit]
64 | COc1cccc(CN(C(=O)c2cc3ccccc3oc2=O)C2CCS(=O)(=O)C2)c1 (stereo not given) | inconclusive: 37.9 µM [inhibitor, partial curve, poor fit]
65 | Cc1nn(C)cc1/C=N/NC(=S)Nc1ccc(Cl)cc1Cl | inconclusive: 37.9 µM [inhibitor, partial curve, poor fit]
66 | CCOc1cccc(NC(=O)CC#N)c1 | inactive
67 | Cc1cc(C)c2c(CC(=O)Nc3ccc(S(=O)(=O)Nc4ncccn4)cc3)coc2c1 | inconclusive: 19 µM [inhibitor, partial curve, poor fit]
68 | O=C(NCc1ccccc1)c1nc2ccccc2s1 | inconclusive: 37.9 µM [inhibitor, partial curve, poor fit]
69 | Cc1ccc(Oc2ccc(OCC(=O)NC(CC(C)C)C(=O)O)cc2)cc1 (stereo not given) | inconclusive: 37.9 µM [inhibitor, single point]
70 | O=C(Nc1cccc(-c2nnc(-c3ccccc3)o2)c1)c1ccc(Br)o1 | inconclusive: 23.9 µM [inhibitor, single point]
